Measurements taken from the supplement of paper PMC8728848.
The other results are listed elsewhere or left out.

How the values were obtained:
Test in all cases: glycan array binding signal (z-score within array); higher = stronger binding
Settings in all cases: glycan notation: IUPAC condensed, linker removed; mutation: R85A
[1] = biological target: Neu5Ac(a2-3)Gal(b1-3)GlcNAc(b1-3)Gal(b1-3)GlcNAc
Method in brief: (§1)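 The binding signal is a Z-score computed within each array. Data were drawn from 3228 arrays in the Consortium for Functional Glycomics database, restricted to those with a known protein sequence. Scores were averaged over arrays of the same protein sequence at different concentrations or buffers, and over linkers, and negative values can be taken as non-binding.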

[2] = biological target: Neu5Ac(a2-3)Gal(b1-3)GlcNAc(b1-3)Gal(b1-4)GlcNAc
Method in brief: as §1

[3] = biological target: Neu5Ac(a2-3)Gal(b1-3)GlcNAc(b1-3)GalNAc
Method in brief: as §1

[4] = biological target: Neu5Ac(a2-3)Gal(b1-3)GlcNAc6S
Method in brief: as §1

[5] = biological target: Neu5Ac(a2-3)Gal(b1-3)[Fuc(a1-4)]GlcNAc
Method in brief: as §1

[6] = biological target: Neu5Ac(a2-3)Gal(b1-3)[Fuc(a1-4)]GlcNAc(b1-3)Gal(b1-3)[Fuc(a1-4)]GlcNAc
Method in brief: as §1

[7] = biological target: Neu5Ac(a2-3)Gal(b1-3)[Fuc(a1-4)]GlcNAc(b1-3)Gal(b1-4)[Fuc(a1-3)]GlcNAc
Method in brief: as §1

[8] = biological target: Neu5Ac(a2-3)Gal(b1-3)[Neu5Ac(a2-3)Gal(b1-4)]GlcNAc
Method in brief: as §1

[9] = biological target: Neu5Ac(a2-3)Gal(b1-3)[Neu5Ac(a2-6)]GalNAc
Method in brief: as §1

Neu5Ac(a2-3)Gal(b1-4)Glc = biological target: Neu5Ac(a2-3)Gal(b1-4)Glc
Method in brief: as §1

[10] = biological target: Neu5Ac(a2-3)Gal(b1-4)GlcNAc
Method in brief: as §1

[11] = biological target: Neu5Ac(a2-3)Gal(b1-4)GlcNAc(b1-2)Man(a1-3)[GlcNAc(b1-2)Man(b1-4)GlcNAc(b1-2)Man(a1-6)]Man(b1-4)GlcNAc(b1-4)GlcNAc
Method in brief: as §1

[12] = biological target: Neu5Ac(a2-3)Gal(b1-4)GlcNAc(b1-2)Man(a1-3)[Neu5Ac(a2-6)Gal(b1-4)GlcNAc(b1-2)Man(a1-6)]Man(b1-4)GlcNAc(b1-4)GlcNAc
Method in brief: as §1

[13] = biological target: Neu5Ac(a2-3)Gal(b1-4)GlcNAc(b1-3)Gal(b1-3)GlcNAc
Method in brief: as §1

[14] = biological target: Neu5Ac(a2-3)Gal(b1-4)GlcNAc(b1-3)Gal(b1-4)GlcNAc
Method in brief: as §1

[15] = biological target: Neu5Ac(a2-3)Gal(b1-4)GlcNAc(b1-3)Gal(b1-4)GlcNAc(b1-3)Gal(b1-4)GlcNAc
Method in brief: as §1

[16] = biological target: Neu5Ac(a2-3)Gal(b1-4)GlcNAc(b1-3)Gal(b1-4)[Fuc(a1-3)]GlcNAc
Method in brief: as §1

[17] = biological target: Neu5Ac(a2-3)Gal(b1-4)GlcNAc(b1-3)GalNAc
Method in brief: as §1

[18] = biological target: Neu5Ac(a2-3)Gal(b1-4)GlcNAc(b1-6)[Gal(b1-3)]GalNAc
Method in brief: as §1

[19] = biological target: Neu5Ac(a2-3)Gal(b1-4)GlcNAc(b1-6)[Neu5Ac(a2-3)Gal(b1-3)]GalNAc
Method in brief: as §1

[20] = biological target: Neu5Ac(a2-3)Gal(b1-4)GlcNAc6S
Method in brief: as §1

[21] = biological target: Neu5Ac(a2-3)Gal(b1-4)[Fuc(a1-3)]GlcNAc
Method in brief: as §1

[22] = biological target: Neu5Ac(a2-3)Gal(b1-4)[Fuc(a1-3)]GlcNAc(b1-3)Gal
Method in brief: as §1

[23] = biological target: Neu5Ac(a2-3)Gal(b1-4)[Fuc(a1-3)]GlcNAc(b1-3)Gal(b1-4)GlcNAc
Method in brief: as §1

[24] = biological target: Neu5Ac(a2-3)Gal(b1-4)[Fuc(a1-3)]GlcNAc(b1-3)Gal(b1-4)[Fuc(a1-3)]GlcNAc(b1-3)Gal(b1-4)[Fuc(a1-3)]GlcNAc
Method in brief: as §1

[25] = biological target: Neu5Ac(a2-3)Gal(b1-4)[Fuc(a1-3)]GlcNAc(b1-3)GalNAc
Method in brief: as §1

[26] = biological target: Neu5Ac(a2-3)Gal(b1-4)[Fuc(a1-3)]GlcNAc(b1-6)[Gal(b1-3)]GalNAc
Method in brief: as §1

[27] = biological target: Neu5Ac(a2-3)Gal(b1-4)[Fuc(a1-3)]GlcNAc(b1-6)[Neu5Ac(a2-3)Gal(b1-3)]GalNAc
Method in brief: as §1

[28] = biological target: Neu5Ac(a2-3)Gal(b1-4)[Fuc(a1-3)]GlcNAc6S
Method in brief: as §1

[29] = biological target: Neu5Ac(a2-3)Gal6S(b1-4)GlcNAc
Method in brief: as §1

[30] = biological target: Neu5Ac(a2-3)Gal6S(b1-4)[Fuc(a1-3)]GlcNAc
Method in brief: as §1

Neu5Ac(a2-3)GalNAc = biological target: Neu5Ac(a2-3)GalNAc
Method in brief: as §1

[31] = biological target: Neu5Ac(a2-3)GalNAc(b1-4)GlcNAc
Method in brief: as §1

[32] = biological target: Neu5Ac(a2-3)[GalNAc(b1-4)]Gal(b1-4)Glc
Method in brief: as §1

[33] = biological target: Neu5Ac(a2-3)[GalNAc(b1-4)]Gal(b1-4)GlcNAc
Method in brief: as §1

[34] = biological target: Neu5Ac(a2-3)[GalNAc(b1-4)]Gal(b1-4)GlcNAc(b1-3)GalNAc
Method in brief: as §1

[35] = biological target: Neu5Ac(a2-3)[Neu5Ac(a2-6)]GalNAc
Method in brief: as §1

Neu5Ac(a2-6)Gal = biological target: Neu5Ac(a2-6)Gal
Method in brief: as §1

Neu5Ac(a2-6)Gal(b1-4)Glc = biological target: Neu5Ac(a2-6)Gal(b1-4)Glc
Method in brief: as §1

[36] = biological target: Neu5Ac(a2-6)Gal(b1-4)GlcNAc
Method in brief: as §1

B1: rAAL (Agrocybe aegerita), Q6WY08 (protein)
chain: MQGVNIYNISAGTSVDLAAPVTTGDIVTFFSSALNLNAGAGNPNNTTLNLFAENGAYLLHIAFRLQENVIIFNSRQPDGPWLVEQAVSDVANQFAGIDGKAMVTVFDHGDKYQVVINEKTVIQYTKQISGLTLSLSYNATEETSIFSTVVEAVTYTGLALEHHHHHH
[1]
  glycan array binding signal (z-score): -0.05
[2]
  glycan array binding signal (z-score): -0.024
[3]
  glycan array binding signal (z-score): -0.112
[4]
  glycan array binding signal (z-score): -0.135
[5]
  glycan array binding signal (z-score): -0.142
[6]
  glycan array binding signal (z-score): -0.054
[7]
  glycan array binding signal (z-score): -0.135
[8]
  glycan array binding signal (z-score): -0.132
[9]
  glycan array binding signal (z-score): -0.112
Neu5Ac(a2-3)Gal(b1-4)Glc
  glycan array binding signal (z-score): 0.216
[10]
  glycan array binding signal (z-score): -0.128
[11]
  glycan array binding signal (z-score): -0.067
[12]
  glycan array binding signal (z-score): -0.113
[13]
  glycan array binding signal (z-score): -0.126
[14]
  glycan array binding signal (z-score): -0.113
[15]
  glycan array binding signal (z-score): -0.126
[16]
  glycan array binding signal (z-score): -0.14
[17]
  glycan array binding signal (z-score): -0.135
[18]
  glycan array binding signal (z-score): -0.134
[19]
  glycan array binding signal (z-score): -0.045
[20]
  glycan array binding signal (z-score): -0.133
[21]
  glycan array binding signal (z-score): -0.134
[22]
  glycan array binding signal (z-score): -0.154
[23]
  glycan array binding signal (z-score): -0.105
[24]
  glycan array binding signal (z-score): -0.146
[25]
  glycan array binding signal (z-score): -0.096
[26]
  glycan array binding signal (z-score): -0.097
[27]
  glycan array binding signal (z-score): -0.135
[28]
  glycan array binding signal (z-score): -0.136
[29]
  glycan array binding signal (z-score): -0.139
[30]
  glycan array binding signal (z-score): -0.133
Neu5Ac(a2-3)GalNAc
  glycan array binding signal (z-score): -0.131
[31]
  glycan array binding signal (z-score): -0.127
[32]
  glycan array binding signal (z-score): -0.125
[33]
  glycan array binding signal (z-score): -0.14
[34]
  glycan array binding signal (z-score): -0.14
[35]
  glycan array binding signal (z-score): -0.136
Neu5Ac(a2-6)Gal
  glycan array binding signal (z-score): -0.121
Neu5Ac(a2-6)Gal(b1-4)Glc
  glycan array binding signal (z-score): -0.008
[36]
  glycan array binding signal (z-score): -0.129
